Experimental data from ChEMBL document CHEMBL4888484, “Replenishing the malaria drug discovery pipeline: Screening and hit evaluation of the MMV Hit Generation Library 1 (HGL1) against asexual blood stage Plasmodium falciparum ,using a nano luciferase reporter read-out” (2022).
Screen size: about 4,800 compounds; about 420 (8.8%) showed an effect of 50% or more. This is one part of the list.

Tested on: Plasmodium falciparum
Experiment: Confirmatory screen in NF54 nanoGlo assay, in single point, at 2uM, 72h
Type: functional, Erythrocyte
Details: timepoint 72 hour

SMILES	% Inhibition [%]
FC(F)(F)c1cnc(Cc2ccc(OC[C@H]3CC3(Cl)Cl)cc2)c(Cl)c1	5
Cc1ccc(NC(=O)N2CC(c3nc(C(C)C)nn3C)C2)cc1F	-7
CCNC(=O)CN(CC)C(=O)COc1ccc(Cl)c(C)c1	-5
Cn1nccc1CS(=O)(=O)c1ccc(F)c(F)c1	0
CC(C)(NC(=O)CC1CCC(F)(F)CC1)c1nc2ccccc2s1	2
Cc1cnn(CC(=O)NC[C@]2(N3CCOCC3)CCOC2)c1	-9
Cc1ccccc1N1C2=CCCCCN2C[C@]1(O)c1ccc(Br)cc1	1
Cc1ccc(F)cc1NC(=O)N1CCC12CCC2	-6
CCC(=O)N1CCc2sc(C(=O)NC3CCN(Cc4ccccc4)CC3)cc2C1	-5
Cc1ccc(C)c(NC(=O)CC(=O)O)c1	-13
Cc1cc(C(=O)NCc2cnn(C)c2C)nc(N2CCOCC2)n1	-9
O=C1C2CCCCC2C(=O)N1c1cnn(Cc2cccc3ccccc23)c1 (stereo not given)	-6
Cc1nc(O)ccc1C(=O)N[C@H](c1ccc(Cl)cc1)c1ncon1	-9
Cn1ncnc1CNC(=O)NCC1(Cc2ccccc2)CCC1	-8
O=c1cc(N2CCN(C3CCCC3)CC2)cnn1Cc1ccccc1	-13
CCOc1cc(CNC2CCCCC2)cc(Cl)c1OCc1ccc(C)cc1	-7
Cc1c(S(=O)(=O)NCc2cc3c(s2)CCCC3)cnn1C	2
Cc1nc2cc(NC(=O)c3cccs3)ccc2o1	-8
CCn1nc(C)c(C(=O)Nc2cn(C)nc2C(N)=O)c1C	-8
COc1cc(C(=O)NC2CC(C)(C)NC(C)(C)C2)ccc1OCc1ccccc1Cl	3
Oc1ccccc1CNc1cccc2cccnc12	98
O=C(C[C@@H]1C(=O)Nc2nc(N3CCOCC3)[nH]c(=O)c21)Nc1ccc(Cl)cc1	9
O=c1[nH]cnc2c1nc(N1CCCCC1)n2C1OC(CO)C(O)C1O (stereo not given)	6
O=C(CNC(=O)[C@H]1CC[C@H](CNS(=O)(=O)c2ccccc2)CC1)N1CCN(c2ccccc2)CC1	4
O=C(NCc1ccco1)[C@H]1CCCN(c2nc3ccccc3n(Cc3ccccc3)c2=O)C1	4
Brc1cncnc1NC1CC1	2
O=C(Nc1ccc(F)cc1)c1c(O)c2cccc3c2n(c1=O)CC3	-16
Cc1cc(CN(C)C[C@@H]2C[C@H]2c2ccccc2)no1	4
Cc1ccccc1NC(=O)N1CCN(C(=O)c2nonc2N)CC1	-7
CCn1nccc1[C@@H]1CC(c2cccc(O)c2)=NN1c1ccc(S(N)(=O)=O)cc1	5
